We go through 40 molecules from PubChem BioAssay (NCATS).

The other results are listed elsewhere or left out. Shown are side measurements of this screen, not its main read-out; they come without a call. Most of these compounds were active or inconclusive in the main read-out, so they are no random draw. Potencies come from curve fits of mixed quality, noted in brackets.
Tags tell the direction and shape of the fitted curve.

One assay is described as follows: qHTS Assay for Lipid Storage Modulators (AID 1519). Particulars: Drosophila S3 cells, BODIPY lipid droplet/cell ratio, laser cytometry; measured here: cell count channel max response; cells loaded with oleic acid. In a few lines:
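Cells seeded at 5,000 per well were treated with compounds over a concentration series and loaded with oleic acid (400 uM, as added). Lipid droplet fluorescence (488 nm excitation, 500-530 nm channel) was read by laser-scanning cytometry and normalized to 20 uM Triacsin C.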
As for `CS(=O)(=O)N1CCC2(CCN(Cc3nccs3)CC2)CC1`, the max response was found to be 20.7%.
Still for that read-out and setting: for `COc1ccc(Oc2ncc3ncc(=O)n(Cc4cccc(OC)c4)c3n2)cc1` the value was 16.9%; for `COc1ccc(C(=O)N2CCC3(CCN(Cc4ccncc4)CC3)CC2)cc1`, 23.2%; for `CCNc1ncc2nc(C)c(=O)n(CCc3ccccc3)c2n1`, 17.9%.
On to `O=C(OCCOCCO)c1ccccc1Nc1cccc(C(F)(F)F)c1`, for which the max response was -20.8%.
The same measure, in the same setting: for `COc1cccc(Nc2ncc3nc(-c4ccc(Cl)cc4)c(=O)n(CCC#N)c3n2)c1` the value was 59.4%; for `COc1ccc(C(=O)N2CCC3(CC2)CCN(c2ccccn2)CC3)cc1`, 18.2%.
The same measure, in the same setting: the value for `N#Cc1ccc(CN2CCCC3(CCN(S(=O)(=O)c4ccccc4)CC3)C2)cc1` was -8.23%; that for `COc1ccc(Oc2ncc3nc(C)c(=O)n(CCC#N)c3n2)cc1` was 24.2%; that for `COc1ncc2ncc(=O)n(CCC#N)c2n1` was 18.3%.
Turning to `CN(C)C(=O)c1ccc(-c2nc(Nc3ccc(F)cc3)c3ccccc3n2)cc1`, the max response is -9.41%.
Regarding `COc1ccccc1-c1nc(NCc2cccnc2)c2ccccc2n1`, the max response was determined as 11.9%.
On the same count and under the same terms, for `Cc1cccc(CNc2nc(-c3ccc(C(=O)N(C)C)cc3)nc3ccccc23)c1` the value was 0.225%; for `COCCn1c(=O)c(-c2cccs2)nc2cnc(Oc3ccc(OC)cc3)nc21`, 10.1%.
Still for that read-out and setting: the value for `Cc1nc2cnc(Oc3ccccc3)nc2n(C2CC2)c1=O` was 16.1%; that for `COc1ccc(-c2coc3c(OC)c(OC)cc(O)c3c2=O)cc1` was 5.77%.
On the same count and under the same terms, for `CN(C)c1ncc2nc(-c3cc(F)cc(F)c3)c(=O)n(C)c2n1` the value was 29%; for `CS(=O)(=O)N1CCC2(CCCN(c3ncccn3)C2)CC1`, 17.3%.
For the molecule `CC(C)NC[C@@H](O)COc1ccccc1-n1cccc1`, the max response turned out to be 23%.
Consider `c1cncc(-c2ccc3ncnc(NC4CCNCC4)c3c2)c1`, for which the max response came out at 25.8%.
For `CCC(=O)OCC(=O)C1(OC(=O)CC)C(C)CC2C3CCC4=CC(=O)C=CC4(C)C3(Cl)C(O)CC21C` (stereo not given), the max response worked out at 21.2%.
Same read-out and setting: the value for `Cc1ccccc1-c1ccc2ncnc(NCCN3CCOCC3)c2c1` was 3.5%.
On the same count and under the same terms, the value for `COc1ccc(-c2nc3cnc(Nc4cccc(OC)c4)nc3n(Cc3cccs3)c2=O)cc1` was 34.8%; that for `Cc1ccccc1OCC(O)CO` (stereo not given) was 22.1%; that for `CN(C)C(=O)c1ccc(-c2cc(NCc3ccccc3)ncn2)cc1` was 28%.
Same read-out and setting: the value for `N#CCCn1c(=O)c(-c2ccc(F)cc2)nc2cnc(Oc3ccccc3)nc21` was 18%; that for `O=C(c1ccco1)N1CCC2(CC1)CCN(c1ccc(-c3ccccc3)cc1)CC2` was 22.8%.
Regarding `CCNc1ncc2nc(C)c(=O)n(C[C@H]3CCCO3)c2n1`, the max response was found to be 26.6%.
The same measure, in the same setting: the value for `FC(F)(F)c1ccccc1-c1nccc(NCCN2CCOCC2)n1` was 29.8%; that for `CN1CCN(CCC=C2c3ccccc3Sc3ccc(S(=O)(=O)N(C)C)cc32)CC1` was 14.8%.
For `CCN(CC)CCOC(=O)c1ccc(N)cc1`, the max response was 14.8%.
On the same count and under the same terms, the value for `C[C@H]1[C@H]2CC[C@H]3C4CC=C5C[C@@H](N(C)C)CC[C@]5(C)C4CC[C@]23CN1C` (stereo not given in full) was 27.6%.
Regarding `CNC(=O)[C@H]1O[C@H](n2cnc3c(NCc4cccc(I)c4)nc(Cl)nc32)[C@@H](O)[C@@H]1O`, the max response stood at 57.9%.
Still for that read-out and setting: for `COc1ccc(NC(=O)N2CC[C@@]3(CCCN(C(=O)c4c(C)noc4C)C3)C2)cc1` the value was 28.9%; for `Cn1cccc1C(=O)N1CCC[C@@]2(CCN(Cc3nccs3)C2)C1`, 25.7%.
On the same count and under the same terms, for `O=C1OCCN1/N=C/c1ccc([N+](=O)[O-])o1` the value was -23.1%; for `COc1ccc(C(=O)N2CCC[C@@]3(CCN(Cc4ccccc4)C3)C2)cc1`, -0.776%.
Same read-out and setting: the value for `COCCn1c(=O)c(-c2ccc(OC)cc2)nc2cnc(Oc3cccc(Cl)c3)nc21` was 17.7%; that for `c1ccc2c(c1)CN1CCCC1=N2` was 22.4%.
Regarding `O=C(c1ccncc1)N1CCC2(CCN(Cc3cc(C(F)(F)F)cc(C(F)(F)F)c3)CC2)CC1`, the max response was determined as 22.8%.

Staying with this assay, now noted: Drosophila S3 cells, BODIPY lipid droplet/cell ratio, laser cytometry; measured here: cell number channel AC50; cells loaded with oleic acid.
Take `COc1cccc(Nc2ncc3nc(-c4ccc(Cl)cc4)c(=O)n(CCC#N)c3n2)c1`: the AC50 (commonly the concentration giving half of the maximal activity seen) was 6.31 µM [rising, partial curve].
Still for that read-out and setting: the value for `N#Cc1ccc(CN2CCCC3(CCN(S(=O)(=O)c4ccccc4)CC3)C2)cc1` was 1.12 µM [rising, partial curve].
In the case of `COCCn1c(=O)c(-c2cccs2)nc2cnc(Oc3ccc(OC)cc3)nc21`, the AC50 is 0.0224 µM [rising, full curve].
`COc1ccc(-c2nc3cnc(Nc4cccc(OC)c4)nc3n(Cc3cccs3)c2=O)cc1`: the AC50 was 5.01 µM [rising, partial curve].
Regarding `CNC(=O)[C@H]1O[C@H](n2cnc3c(NCc4cccc(I)c4)nc(Cl)nc32)[C@@H](O)[C@@H]1O`, the AC50 was 2.51 µM [rising, full curve, poor fit].

Staying with this assay, now noted: Drosophila S3 cells, BODIPY lipid droplet/cell ratio, laser cytometry; measured here: lipid (BODIPY) channel AC50; cells loaded with oleic acid.
Regarding `CS(=O)(=O)N1CCC2(CCN(Cc3nccs3)CC2)CC1`, the AC50 is 0.0631 µM [rising, full curve, poor fit].
On to `COc1ccc(Oc2ncc3ncc(=O)n(Cc4cccc(OC)c4)c3n2)cc1`, for which the half-maximal activity concentration (AC50) was 0.1 µM [rising, full curve, poor fit].
Turning to `COc1ccc(C(=O)N2CCC3(CCN(Cc4ccncc4)CC3)CC2)cc1`, the concentration at half-maximal activity (AC50) is 0.316 µM [rising, partial curve].
On the same count and under the same terms, for `CCNc1ncc2nc(C)c(=O)n(CCc3ccccc3)c2n1` the value was 0.631 µM [rising, full curve]; for `O=C(OCCOCCO)c1ccccc1Nc1cccc(C(F)(F)F)c1`, 20 µM [falling, single point].
Still for that read-out and setting: for `COc1ccc(C(=O)N2CCC3(CC2)CCN(c2ccccn2)CC3)cc1` the value was 0.0708 µM [rising, full curve, poor fit]; for `COc1ccc(Oc2ncc3nc(C)c(=O)n(CCC#N)c3n2)cc1`, 0.398 µM [rising, full curve, poor fit]; for `COc1ncc2ncc(=O)n(CCC#N)c2n1`, 0.0501 µM [rising, full curve, poor fit].
For the molecule `CN(C)C(=O)c1ccc(-c2nc(Nc3ccc(F)cc3)c3ccccc3n2)cc1`, the AC50 was 3.55 µM [rising, partial curve, poor fit].
As for `COc1ccccc1-c1nc(NCc2cccnc2)c2ccccc2n1`, the AC50 was 0.282 µM [rising, partial curve].
Still for that read-out and setting: for `Cc1cccc(CNc2nc(-c3ccc(C(=O)N(C)C)cc3)nc3ccccc23)c1` the value was 1.26 µM [rising, partial curve, poor fit]; for `Cc1nc2cnc(Oc3ccccc3)nc2n(C2CC2)c1=O`, 0.355 µM [rising, full curve, poor fit]; for `COc1ccc(-c2coc3c(OC)c(OC)cc(O)c3c2=O)cc1`, 0.0794 µM [rising, full curve, poor fit].
Turning to `CN(C)c1ncc2nc(-c3cc(F)cc(F)c3)c(=O)n(C)c2n1`, the AC50 is 6.31 µM [rising, full curve].
With `CS(=O)(=O)N1CCC2(CCCN(c3ncccn3)C2)CC1`, the AC50 was 0.0282 µM [rising, full curve, poor fit].
On the same count and under the same terms, the value for `CC(C)NC[C@@H](O)COc1ccccc1-n1cccc1` was 22.4 µM [rising, partial curve, poor fit]; that for `c1cncc(-c2ccc3ncnc(NC4CCNCC4)c3c2)c1` was 6.31 µM [rising, full curve, poor fit]; that for `CCC(=O)OCC(=O)C1(OC(=O)CC)C(C)CC2C3CCC4=CC(=O)C=CC4(C)C3(Cl)C(O)CC21C` (stereo not given) was 56.2 µM [rising, partial curve, poor fit].
The same measure, in the same setting: the value for `Cc1ccccc1-c1ccc2ncnc(NCCN3CCOCC3)c2c1` was 5.62 µM [rising, partial curve, poor fit]; that for `Cc1ccccc1OCC(O)CO` (stereo not given) was 39.8 µM [rising, single point]; that for `CN(C)C(=O)c1ccc(-c2cc(NCc3ccccc3)ncn2)cc1` was 3.55 µM [rising, full curve, poor fit].
Regarding `N#CCCn1c(=O)c(-c2ccc(F)cc2)nc2cnc(Oc3ccccc3)nc21`, the concentration at half-maximal activity (AC50) is 0.2 µM [rising, full curve, poor fit].
For `O=C(c1ccco1)N1CCC2(CC1)CCN(c1ccc(-c3ccccc3)cc1)CC2`, the AC50 is 14.1 µM [rising, partial curve, poor fit].
Same read-out and setting: for `CCNc1ncc2nc(C)c(=O)n(C[C@H]3CCCO3)c2n1` the value was 3.16 µM [rising, partial curve, poor fit]; for `FC(F)(F)c1ccccc1-c1nccc(NCCN2CCOCC2)n1`, 10 µM [rising, partial curve].
Same read-out and setting: for `CN1CCN(CCC=C2c3ccccc3Sc3ccc(S(=O)(=O)N(C)C)cc32)CC1` the value was 2 µM [rising, full curve, poor fit]; for `CCN(CC)CCOC(=O)c1ccc(N)cc1`, 17.8 µM [rising, partial curve, poor fit].
With `C[C@H]1[C@H]2CC[C@H]3C4CC=C5C[C@@H](N(C)C)CC[C@]5(C)C4CC[C@]23CN1C` (stereo not given in full), the AC50 was 35.5 µM [rising, single point].
Regarding `COc1ccc(NC(=O)N2CC[C@@]3(CCCN(C(=O)c4c(C)noc4C)C3)C2)cc1`, the AC50 was 0.0126 µM [rising, full curve].
Take `Cn1cccc1C(=O)N1CCC[C@@]2(CCN(Cc3nccs3)C2)C1`: the half-maximal activity concentration (AC50) is 20 µM [rising, partial curve, poor fit].
Turning to `O=C1OCCN1/N=C/c1ccc([N+](=O)[O-])o1`, the AC50 was 25.1 µM [falling, partial curve, poor fit].
`COc1ccc(C(=O)N2CCC[C@@]3(CCN(Cc4ccccc4)C3)C2)cc1`: the concentration at half-maximal activity (AC50) is 0.00562 µM [rising, full curve, poor fit].
As to `COCCn1c(=O)c(-c2ccc(OC)cc2)nc2cnc(Oc3cccc(Cl)c3)nc21`, the concentration at half-maximal activity (AC50) is 0.02 µM [rising, full curve, poor fit].
The same measure, in the same setting: for `c1ccc2c(c1)CN1CCCC1=N2` the value was 12.6 µM [rising, partial curve, poor fit]; for `O=C(c1ccncc1)N1CCC2(CCN(Cc3cc(C(F)(F)F)cc(C(F)(F)F)c3)CC2)CC1`, 11.2 µM [rising, partial curve, poor fit].
